Reference: US10821151B2, “Compositions and methods for treating cancer and persistent viral infections” (SUSAVION BIOSCIENCES, INC., priority 2015, dated 2020)

System: human PBMCs
Experiment: Human Phospho-Kinase Array on PBMC lysates
Conditions: 100 nM
Experimental: FIG. 13A and FIG. 13B illustrates the changes in phosphorylation of signal transduction kinases in human PBMCs in culture treated with 100 nM SV6D for 5, 10 or 15 min. Cell lysates were spread on an array of capture antibodies and phosphorylated forms were detected with a Human Phospho-Kinase Array (R&D Systems (Minneapolis, Minn.).
To determine whether binding of SV6D to cell-surface receptors would transfer signals to the cytoplasm of cells, cultures of PBMCs were incubated with 100 nM SV6D and samples were removed after 5, 10 or 15 minutes and compared with the phosphorylation state of signal transduction kinase intermediates in untreated cells. As illustrated in FIGS. 13A and 13B, the phosphorylated form of several intermediates changed rapidly and dramatically. […] These rapid changes may represent remodeling of the phosphor-proteins.

## [NQHTPRGGGS]4K3-NH2 [SV6D]
10 minutes
  phosphorylated forms of proteins p53, CREB and PRAS40: markedly decreased
15 minutes
  phosphorylated forms of proteins p53, CREB and PRAS40: rebounded
